The values below come from PMC7806638.

Sequences of proteins named here, by UniProt entry; tags and fusion partners are left off. A change or cut given only in a name is not applied to a line headed by its entry. A line that says so, or that is headed by a name, gives the form on record, which may keep a tag or linker.
UniProt P06748: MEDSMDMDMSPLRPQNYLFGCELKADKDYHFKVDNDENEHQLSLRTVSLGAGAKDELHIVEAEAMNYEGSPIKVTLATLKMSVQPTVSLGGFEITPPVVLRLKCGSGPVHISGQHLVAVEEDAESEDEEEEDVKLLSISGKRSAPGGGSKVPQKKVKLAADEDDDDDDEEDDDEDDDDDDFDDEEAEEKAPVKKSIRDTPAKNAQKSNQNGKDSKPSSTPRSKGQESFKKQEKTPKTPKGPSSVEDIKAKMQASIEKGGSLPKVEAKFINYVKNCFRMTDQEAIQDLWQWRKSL
mRFP1-labeled nucleophosmin with C21 substituted to alanine (P06748, form named): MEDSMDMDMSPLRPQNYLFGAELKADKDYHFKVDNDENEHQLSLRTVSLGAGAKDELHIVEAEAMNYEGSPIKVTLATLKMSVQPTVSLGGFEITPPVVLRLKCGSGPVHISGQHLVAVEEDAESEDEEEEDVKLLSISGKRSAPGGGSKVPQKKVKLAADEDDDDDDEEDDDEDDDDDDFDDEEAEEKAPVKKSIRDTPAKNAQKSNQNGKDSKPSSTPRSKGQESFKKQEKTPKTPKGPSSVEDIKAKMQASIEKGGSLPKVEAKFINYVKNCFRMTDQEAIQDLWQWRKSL
eGFP-labeled nucleophosmin with C21 substituted to phenylalanine (P06748, form named): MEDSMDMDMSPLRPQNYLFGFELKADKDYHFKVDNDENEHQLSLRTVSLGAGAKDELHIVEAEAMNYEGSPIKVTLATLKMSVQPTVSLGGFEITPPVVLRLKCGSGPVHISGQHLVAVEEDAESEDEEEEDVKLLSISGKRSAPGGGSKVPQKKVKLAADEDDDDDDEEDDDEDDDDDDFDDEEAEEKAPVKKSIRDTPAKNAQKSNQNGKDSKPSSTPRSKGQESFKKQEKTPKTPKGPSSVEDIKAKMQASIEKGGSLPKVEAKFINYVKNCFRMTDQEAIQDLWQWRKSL
UniProt Q8N726: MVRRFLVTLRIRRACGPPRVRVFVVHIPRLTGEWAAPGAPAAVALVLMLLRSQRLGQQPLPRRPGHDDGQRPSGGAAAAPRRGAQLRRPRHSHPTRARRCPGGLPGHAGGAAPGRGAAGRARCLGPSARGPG

No constants are given. Whether binding was seen depends on the method and setting. For some of these results: In cells and extracts the contact can be indirect. Some binding calls cover weakened binding; strength is not graded here.

Experiment [1] deals with eGFP-labeled nucleophosmin with C21 substituted to alanine (human) (UniProt P06748). Put plainly: native gel or EMSA; native PAGE: lysates (10 mM Tris pH 7.5, 150 mM NaCl, 0.5 mM EDTA, 0.5% NP-40) mixed with native buffer (50 mM Tris pH 6.8, 10 mM DTT, 10% glycerol), not boiled, 7.5% Tris-glycine gel without SDS, Western blot; some samples from cells treated with NSC348884 (10 µM, 24 h). On the technique in general: A gel shift assay detects complexes by their altered migration in electrophoresis.

Experiment [2] has the same target. Put plainly: native gel or EMSA; semi-native PAGE: same unboiled lysates in native buffer on a gel with SDS (2%), Western blot; some samples from cells treated with NSC348884 (10 µM, 24 h).
The target of experiment [3] is mRFP1-labeled wild-type nucleophosmin (human) (UniProt P06748). Description: native gel or EMSA; native PAGE: lysates (10 mM Tris pH 7.5, 150 mM NaCl, 0.5 mM EDTA, 0.5% NP-40) mixed with native buffer (50 mM Tris pH 6.8, 10 mM DTT, 10% glycerol), not boiled, 7.5% Tris-glycine gel without SDS, Western blot; some samples from cells treated with NSC348884 (10 µM, 24 h).

Experiment [4] addresses eGFP-labeled nucleophosmin with deletion of the first 25 amino acids (human) (UniProt P06748). Described as above.
For experiment [5] the target is unchanged. Put plainly: native gel or EMSA; semi-native PAGE: same unboiled lysates in native buffer on a gel with SDS (2%), Western blot; some samples from cells treated with NSC348884 (10 µM, 24 h).
For experiment [6], the target named is eGFP-labeled nucleophosmin with deletion of the first 100 amino acids (human) (UniProt P06748). Put plainly: native gel or EMSA; native PAGE: lysates (10 mM Tris pH 7.5, 150 mM NaCl, 0.5 mM EDTA, 0.5% NP-40) mixed with native buffer (50 mM Tris pH 6.8, 10 mM DTT, 10% glycerol), not boiled, 7.5% Tris-glycine gel without SDS, Western blot; some samples from cells treated with NSC348884 (10 µM, 24 h).

Experiment [7] has the same target. Put plainly: native gel or EMSA; semi-native PAGE: same unboiled lysates in native buffer on a gel with SDS (2%), Western blot; some samples from cells treated with NSC348884 (10 µM, 24 h).
The target of experiment [8] is eGFP-labeled nucleophosmin with deletion of the first 117 amino acids (human) (UniProt P06748). Put plainly: native gel or EMSA; native PAGE: lysates (10 mM Tris pH 7.5, 150 mM NaCl, 0.5 mM EDTA, 0.5% NP-40) mixed with native buffer (50 mM Tris pH 6.8, 10 mM DTT, 10% glycerol), not boiled, 7.5% Tris-glycine gel without SDS, Western blot; some samples from cells treated with NSC348884 (10 µM, 24 h).

Experiment [9] has the same target. Put plainly: native gel or EMSA; semi-native PAGE: same unboiled lysates in native buffer on a gel with SDS (2%), Western blot; some samples from cells treated with NSC348884 (10 µM, 24 h).
Experiment [10] has as its target eGFP-labeled nucleophosmin with deletion of the first 25 amino acids (human) (UniProt P06748). Description: co-IP; GFP-Trap nanobeads on lysates of transfected 293T cells, 1 h at 4 °C, washed with 10 mM Tris pH 7.5, 150 mM NaCl, 0.5 mM EDTA, SDS-PAGE and blot; some samples from cells treated with 10 µM NSC348884 for 24 h.
The target in experiment [11] is mRFP1-labeled nucleophosmin with C21 substituted to alanine (human) (UniProt P06748). Put plainly: native gel or EMSA; native PAGE: lysates (10 mM Tris pH 7.5, 150 mM NaCl, 0.5 mM EDTA, 0.5% NP-40) mixed with native buffer (50 mM Tris pH 6.8, 10 mM DTT, 10% glycerol), not boiled, 7.5% Tris-glycine gel without SDS, Western blot; some samples from cells treated with NSC348884 (10 µM, 24 h).

Experiment [12] shares this target. Put plainly: native gel or EMSA; semi-native PAGE: same unboiled lysates in native buffer on a gel with SDS (2%), Western blot; some samples from cells treated with NSC348884 (10 µM, 24 h).
The target of experiment [13] is eGFP-labeled wild-type nucleophosmin (human) (UniProt P06748). Put plainly: native gel or EMSA; native PAGE: lysates (10 mM Tris pH 7.5, 150 mM NaCl, 0.5 mM EDTA, 0.5% NP-40) mixed with native buffer (50 mM Tris pH 6.8, 10 mM DTT, 10% glycerol), not boiled, 7.5% Tris-glycine gel without SDS, Western blot; some samples from cells treated with NSC348884 (10 µM, 24 h).

The target of experiment [14] is eGFP-labeled nucleophosmin with deletion of the first 117 amino acids (human) (UniProt P06748). Description: FRET or BRET; FLIM-FRET in living co-transfected cells, eGFP donor and mRFP1 acceptor, eGFP lifetime before and after mRFP1 photobleaching, 37 °C; some cells treated with 10 µM NSC348884 for 2 h.
Experiment [15] shares this target. Put plainly: co-IP; GFP-Trap nanobeads on lysates of transfected 293T cells, 1 h at 4 °C, washed with 10 mM Tris pH 7.5, 150 mM NaCl, 0.5 mM EDTA, SDS-PAGE and blot; some samples from cells treated with 10 µM NSC348884 for 24 h.
For experiment [16], the target named is eGFP-labeled nucleophosmin with C21 substituted to phenylalanine (human) (UniProt P06748). The experiment is described as above.
Experiment [17] deals with eGFP-labeled nucleophosmin with deletion of the first 100 amino acids (human) (UniProt P06748). The description is as above.

Take “eGFP-labeled nucleophosmin with C21 substituted to alanine (from UniProt P06748 1-294)”: the binding entry in experiment [1] and in experiment [2] was “binds” throughout.

“eGFP-labeled nucleophosmin with C21 substituted to phenylalanine (from UniProt P06748 1-294)”: in [3], the binding result is on record as “binds”.

“eGFP-labeled nucleophosmin with deletion of the first 25 amino acids (from UniProt P06748 26-294) (domain or fragment)”: the binding result in [4] and in experiment [5] was “no binding” throughout.

“eGFP-labeled nucleophosmin with deletion of the first 100 amino acids (from UniProt P06748 101-294) (domain or fragment)”: the binding entry in experiment [6] and in [7] was “no binding” each time.

Take “eGFP-labeled nucleophosmin with deletion of the first 117 amino acids (from UniProt P06748 118-294) (domain or fragment)”: the binding result in [8] and in experiment [9] was “no binding” throughout.

“endogenous nucleophosmin (from UniProt P06748 1-294)”: in [10], the binding entry is given as “binds”.

Regarding “mRFP1-labeled nucleophosmin with C21 substituted to alanine (from UniProt P06748 1-294)”, the binding entry in [11] and in experiment [12] was “binds” each time.

Turning to “mRFP1-labeled nucleophosmin with C21 substituted to phenylalanine (from UniProt P06748 1-294)”, the binding result in experiment [13] is recorded as “binds”.

With “mRFP1-labeled nucleophosmin with deletion of the first 117 amino acids (from UniProt P06748 118-294) (domain or fragment)”, the binding result in experiment [14] and in [15] was “no binding” in each case.

“mRFP1-labeled wild-type nucleophosmin (from UniProt P06748 1-294)”: the binding result in experiment [16] is on record as “binds”.

Consider “tumor suppressor p14Arf, endogenous (from UniProt Q8N726 1-132)”, for which the binding entry in [10], in [17] and in [15] was “no binding” each time.

B1: fibrillarin, endogenous (protein, UniProt P22087 1-321)
chain: MKPGFSPRGGGFGGRGGFGDRGGRGGRGGFGGGRGRGGGFRGRGRGGGGGGGGGGGGGRGGGGFHSGGNRGRGRGGKRGNQSGKNVMVEPHRHEGVFICRGKEDALVTKNLVPGESVYGEKRVSISEGDDKIEYRAWNPFRSKLAAAILGGVDQIHIKPGAKVLYLGAASGTTVSHVSDIVGPDGLVYAVEFSHRSGRDLINLAKKRTNIIPVIEDARHPHKYRMLIAMVDVIFADVAQPDQTRIVALNAHTFLRNGGHFVISIKANCIDSTASAEAVFASEVKKMQQENMKPQEQLTLEPYERDHAVVVGVYRPPPKVKN
B1: the binding result in experiment [10], in experiment [17] and in experiment [15] was “binds” each time.
